# Experimental data reported in PubChem BioAssay AID759 (NMMLSC, 2007).
# Screen size: about 190,000 compounds; about 270 (0.14%) were called active. Inconclusive results, whose numbers are uncertain, are shown with a selection of clear calls.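 How the source made its calls: active means GTP binding activity at least 20% away from the 100% baseline, either lowered as inhibitor or raised as activator; inconclusive means flagged as likely green fluorescent, judged across all proteins in the well; inactive means the rest.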
# Molecular target: GTPase HRas (Homo sapiens) (UniProt P01112)
# Sequence of UniProt P01112 (P01112 whole entry, looked up): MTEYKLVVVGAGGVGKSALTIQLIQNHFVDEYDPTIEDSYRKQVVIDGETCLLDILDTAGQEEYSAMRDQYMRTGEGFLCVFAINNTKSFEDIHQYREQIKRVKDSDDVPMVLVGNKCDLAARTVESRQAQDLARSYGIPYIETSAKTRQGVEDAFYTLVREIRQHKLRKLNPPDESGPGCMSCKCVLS
# Assay: HRas wt fluorescent GTP binding changes, either direction – biochemical, wildtype, bead-based flow cytometry, multiplex, primary screen (AID 759);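 further: 0% = unlabeled GTP competition control and 100% = no-compound control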
# Conditions: GST-Ras wt beads, Bodipy-FL-GTP binding, at 10 µM, actives lie on both sides
row,SMILES,GTP binding activity
1,O=C(Nc1sc2c(c1-c1nc3ccccc3[nH]1)CCCC2)C1CC1,inconclusive: 105%
2,Cn1c(NCc2ccccc2)nc2c1c(=O)n(Cc1ccc(Br)cc1)c(=O)n2C,inactive: 100%
3,CC(/C=N/NC(=O)c1cccs1)=C\c1ccco1,inconclusive: 90%
4,c1ccc(CNc2nc(-c3cccs3)nc3ccccc23)cc1,inconclusive: 103%
5,S=C(Nc1ccc(N2CCOCC2)cc1)Nc1ccc2snnc2c1,inactive: 96%
6,Cc1cc(C(=O)CN2C(=O)C(=O)N(Cc3ccccc3)C2=O)c(C)n1-c1ccccc1F,inconclusive: 89%
7,CCCOP(=O)(OCCC)C(Nc1ccc(C(=O)O)cc1)c1ccccc1 (stereo not given),inconclusive: 90%
8,Cc1cccc2cc(C#N)c(NCCNC(=S)NCCCN3CCOCC3)nc12,inconclusive: 94%
9,O=C(NCCCNc1ccc(C(F)(F)F)cc1[N+](=O)[O-])c1ccc(Cl)cc1,inconclusive: 90%
10,O=C(CNC(=S)N(Cc1ccccc1)Cc1ccccc1F)NCc1ccc(Cl)cc1,inconclusive: 93%
11,C=CCNc1cnn(-c2ccccc2)c(=O)c1Cl,inactive: 97%
12,O=C(Oc1c(Br)cc(Br)c2cccnc12)N1CCCCC1,inconclusive: 92%
13,C=CCC1(C#N)C(SC)=NC2=C(C(=O)CC(C)(C)C2)C1c1ccc(Br)cc1 (stereo not given),inactive: 102%
14,O=c1c(-c2ccccc2)n[nH]c2ccccc12,inconclusive: 102%
15,CC1C(=O)CCCCCCCCCC2C1(N1CCOCC1)CS2(=O)=O (stereo not given),inactive: 103%
16,COC(=O)COc1ccc(S(=O)(=O)NCc2ccco2)cc1,inconclusive: 102%
17,N#CC1=C(N)Oc2n[nH]c(-c3cccnc3)c2C1c1ccc([N+](=O)[O-])o1 (stereo not given),inconclusive: 94%
18,Cc1noc(NS(=O)(=O)c2ccc(NC(=O)CSc3nnc4c(n3)[nH]c3ccccc34)cc2)c1C,inconclusive: 59%
19,O=C(CN1CCC2(CC1)OCCO2)c1ccc2cc[nH]c2c1,inconclusive: 109%
20,Cc1nonc1OCCNc1ccc([N+](=O)[O-])cc1[N+](=O)[O-],inconclusive: 320%
21,CCCCOC(=O)Nc1nnc(CC)s1,inconclusive: 106%
22,COC(=O)c1cn(C(=O)c2cccc(C)c2)c2ccccc12,inconclusive: 95%
23,CN(C)/C=C(\C#N)C(=O)Nc1ccc(O)cc1F,inactive: 98%
24,Cc1cccc(C2C3=C(Nc4[nH]n(-c5ccccc5)c(=O)c42)c2ccccc2C3=O)c1 (stereo not given),inconclusive: 93%

row,SMILES,GTP binding activity
1,COc1cc2c(cc1OC)-c1cc(N3CCCCCC3)nc(=O)n1CC2,inactive: 96%
2,Cc1cccn2c(=O)c(/C=N/O)c(N3CCOCC3)nc12,inconclusive: 98%
3,CCCOc1ccc(N2C(=O)CC(N(CCc3ccc(OC)cc3)C(=O)/C=C/C(=O)O)C2=O)cc1 (stereo not given),inconclusive: 95%
4,O=C(NC1=NCCS1)c1ccc(Cl)s1,inconclusive: 102%
5,CC(=O)c1cccc(NC(=O)NCc2cccs2)c1,inconclusive: 96%
6,OC(c1ccccc1)c1nccn1Cc1ccccc1 (stereo not given),inconclusive: 103%
7,CC1Cc2nc(SCC(=O)Nc3ccc(F)cc3)n(C)c(=O)c2S1 (stereo not given),inconclusive: 92%
8,CCOc1ccc(C(=S)N2CCOCC2)cc1OC,inconclusive: 102%
9,CCCCOCC1CC(CC#CCN2CCCCC2)C(=O)O1 (stereo not given),inconclusive: 86%
10,Cc1ccc(NC(=O)CN2C(=O)N/C(=C/c3ccc(C)o3)C2=O)cc1,inconclusive: 116%
11,CN1CCN(S(=O)(=O)c2cccc(C(=O)NCc3ccccc3Cl)c2)CC1,inactive: 96%
12,CN(CC(=O)O)S(=O)(=O)c1cccs1,inconclusive: 105%
13,N#CCCN(/N=C/c1cccnc1)C1=NS(=O)(=O)c2ccccc21,inactive: 87%
14,CCCC(=O)Nc1nc2c(c(=O)[nH]1)CCCC2,inconclusive: 103%
15,S=c1[nH]nc(-c2cccnc2)n1/N=C/C(Cl)=C\c1ccccc1,inconclusive: 93%
16,COc1cc(C(=O)N/N=C/c2ccc(OC)c(CN3CCN(c4ccc(F)cc4)CC3)c2)ccc1O,inconclusive: 82%
17,COc1ccccc1NC(=O)COC(=O)Cc1ccc(S(=O)(=O)N2CCCCC2)s1,inactive: 98%
18,COc1ccc(C(=O)CSc2ncn[nH]2)cc1OC,inconclusive: 106%
19,O=C(N/N=C/c1ccco1)c1cccc(N2Cc3ccccc3C2)c1,inconclusive: 84%
20,CCOC(=O)C1CCN(C(=O)Nc2ccc(Cl)cc2)CC1,inconclusive: 105%
21,O=C(O)c1ccc2nc3c(nc2c1)-c1ccccc1C3=O,inconclusive: 78%
22,c1csc(CNCc2ccncc2)c1,inconclusive: 97%
23,NC(=O)c1sc2nc3c(c(-c4ccco4)c2c1N)CCC3,inconclusive: 88%
24,CSc1nsc(/C=C/Nc2ccc(C)cc2)c1C#N,inactive: 102%

row,SMILES,GTP binding activity
1,Nc1ccc(Cl)c(S(=O)(=O)Nc2ccccc2Cl)c1,inactive: 98%
2,COc1ccc2c(c1)c1nnc(SCC(=O)N3CCCCC3C)nc1n2C (stereo not given),inconclusive: 87%
3,CCOc1ccccc1N(CC(=O)N/N=C(\C)c1cccc(Br)c1)S(C)(=O)=O,inconclusive: 96%
4,Cc1cccc(C(=O)NC(=S)NNC(=O)COc2c(C)cccc2C)c1,inconclusive: 89%
5,COc1cccc(N2CCN(Cc3nc(N)nc(N4CCCc5ccccc54)n3)CC2)c1,inconclusive: 89%
6,CNC(=O)NC(=O)CSc1nc(-c2cccs2)c(C#N)c(=O)[nH]1,inconclusive: 90%
7,COc1ccc(C(=O)Oc2coc(CSc3nnc(NC(=O)c4cccs4)s3)cc2=O)cc1,inconclusive: 94%
8,Cn1c(SCCOc2ccccc2F)nc2ccccc2c1=O,inconclusive: 73%
9,Cc1ccc2c(c1)N(CC(=O)NC1CCC(C)CC1)C(=O)CO2 (stereo not given),inconclusive: 104%
10,O=C(c1cc(S(=O)(=O)N2CCCCC2)c(Cl)cc1N1CCOCC1)N1CCOCC1,inconclusive: 108%
11,CCC(CC)C(=O)c1c[nH]c(C(=O)NCc2ccccn2)c1,inactive: 99%
12,CCCCN(CCCC)S(=O)(=O)c1c(C)[nH]c(=O)[nH]c1=O,inactive: 100%
13,Cc1cc(N=NC(=O)c2ccccc2O)c2ccccc2c1O,inactive: 83%
14,CCCC1CC(C)(C(=O)Cn2[nH]c(=O)ccc2=O)OC1=O (stereo not given),inconclusive: 102%
15,CC(=O)NCCCNc1ccc([N+](=O)[O-])cc1,inconclusive: 105%
16,Cc1cc(NS(=O)(=O)c2ccccc2)c(C)c(Cl)c1O,inactive: 101%
17,Cc1ccnc(Nc2nc(-c3c(C)nc4sccn34)cs2)c1,inconclusive: 77%
18,Cc1cc(NC(=O)c2ccccc2)ncc1NC(=O)c1ccco1,inconclusive: 105%
19,COc1ccc(S(=O)(=O)N2CCN(CC(=O)Nc3cc(C(F)(F)F)ccc3Cl)CC2)cc1,inconclusive: 45%
20,O=C(NCCN1CCOCC1)c1ccc(=O)n(Cc2ccc(Cl)cc2)c1,inactive: 95%
21,CCN(CC)c1ccc2c(c1)oc(=O)c1c(Cl)cc(=O)oc12,inactive: 89%
22,Cc1nc(NC(=O)/C=C/c2ccc(Cl)cc2Cl)sc1C(=O)N(C)C,inconclusive: 80%
23,Cc1cccc(Nc2nc3c(S(=O)(=O)c4ccccc4)nnn3c3ccccc23)c1,inconclusive: 101%
24,CCS(=O)(=O)N1N=C(c2cccc(NS(C)(=O)=O)c2)CC1c1ccccc1 (stereo not given),inconclusive: 106%

row,SMILES,GTP binding activity
1,O=C(O)c1cccc(Nc2ncnc3c2cnn3-c2ccccc2)c1,inconclusive: 93%
2,CCOC(=O)N1CCC(NC(=O)C2CCN(S(=O)(=O)c3ccc4c(c3)oc(=O)n4C)CC2)CC1,inactive: 98%
3,COc1ccccc1OCC(O)Cn1c(=N)n(CCN2CCCCC2)c2ccccc21 (stereo not given),inconclusive: 93%
4,O=C(Nc1nnc(-c2cccs2)o1)c1ccc(S(=O)(=O)N2CCOCC2)cc1,inconclusive: 90%
5,C/C(=N\NC(=O)CC1N=C(Cc2ccccc2)NNC1=O)c1ccc(Cl)cc1Cl (stereo not given),inconclusive: 138%
6,O=C(Cn1cnc([N+](=O)[O-])n1)N/N=C/c1cc(Cl)ccc1O,inconclusive: 89%
7,O=C(CN1C(=O)C2CC=CCC2C1=O)Nc1ccc(S(=O)(=O)N2CCOCC2)cc1 (stereo not given),inactive: 94%
8,COc1ccc(CCNC(=O)CSc2nnc(-c3cccc(F)c3)o2)cc1OC,inconclusive: 106%
9,COC(=O)C1SCC2C(=O)N(Cc3ccccc3)CC(=O)N21 (stereo not given),inactive: 92%
10,Cc1nn(-c2ccccc2)c(Oc2ccccc2)c1C=O,inactive: 100%
11,CCN(CC)S(=O)(=O)c1ccc(-c2nnc(SC)o2)cc1,inconclusive: 103%
12,CNc1nc(SC)nc(N(C)C#N)n1,inactive: 91%
13,Cc1nnc2ccc(-c3ccc(NC(=O)c4ccco4)cc3)nn12,inactive: 85%
14,CCOC(=O)CS(=O)(=O)c1ccc(O)cc1,inactive: 94%
15,CCCCCCCC(=O)NN1CCOCC1,inconclusive: 98%
16,CCN(CC)S(=O)(=O)c1ccc(C(=O)NC(=S)N(CCC#N)Cc2cccnc2)cc1,inconclusive: 95%
17,O=Nc1c(O)n(Cc2ccc(Cl)cc2Cl)c2ccccc12,inconclusive: 89%
18,CCOc1cccc(-c2nn3c(-c4ccco4)nnc3s2)c1,inactive: 80%
19,CCOC(=O)C1C(C(=O)NN)C1C(=O)Nc1ccccc1 (stereo not given),inactive: 101%
20,COC(=O)c1nnn(CC(=O)Nc2ccc(C)c(F)c2)c1C(=O)OC,inconclusive: 93%
21,CCS(=O)(=O)N1N=C(c2cccc(NS(C)(=O)=O)c2)CC1c1ccc(C)cc1 (stereo not given),inconclusive: 118%
22,CCCc1nc2sc3c(=O)n(N)cnc3c2c2c1CCCC2,inconclusive: 102%
23,CCc1c(C)nc(Nc2nc(C)c3cc(OC)ccc3n2)[nH]c1=O,inconclusive: 92%
